In patent EP0237495A2, “Halogenides of the ester of 2,N,N,N-dimethyl-alkyl-amino-ethanol with substituted acetic acid and pharmaceutical compositions having antiinflammatory and antiseptic activities containing same” (Sigma-Tau Industrie Farmaceutiche Riunite S.p.A., priority 1986, dated 1987) one finds MIC data, which are given here for four compounds.

In one assay the test system is Salmonella cholerae suis. Kind of assay: Determination of minimum inhibiting concentration in vitro. Particulars: ATCC10708, read-out: Minimum Inhibiting Concentration.
The subject of a further assay is Bacillus cereus mycoides. Kind of assay: microbe, parasite or virus in culture. Particulars: read-out: Minimum Inhibiting Concentration.

For the compound `CCCCCCCCCCCC[N+](C)(C)CCOC(=O)Cc1c(C)n(C(=O)c2ccc(Cl)cc2)c2ccc(OC)cc12` [RE 9, iodide of the ester of 2-N,N,N-dimethyl-dodecyl, amino-ethanol with 1-(p-chlorobenzoyl)-2-methyl-5-methoxy-3-indolyl-acetic acid], the MIC was 20 mg/L in the assay on Salmonella cholerae suis and not above 5 mg/L in the assay with Bacillus cereus mycoides.

On to `CCCCCCCC[N+](C)(C)CCOC(=O)C(C)c1ccc(CC(C)C)cc1` (stereo not drawn) [AF 150, bromide of the ester of 2-N,N,N-dimethyl-octyl-amino-ethanol with p-isobutylphenyl-alpha-methylacetic acid], for which the MIC was 80 mg/L with Salmonella cholerae suis and 10 mg/L with Bacillus cereus mycoides.

`N=C(NCCCCCCNC(=N)NC(=N)Nc1ccc(Cl)cc1)NC(=N)Nc1ccc(Cl)cc1` [Chlorexidine, Chlorexidine gluconate, reference compound]: the MIC in the assay with Salmonella cholerae suis and with Bacillus cereus mycoides was 10 mg/L throughout.

Take `CCCCCCCCCC[N+](C)(C)CCOC(=O)Cc1c(C)n(C(=O)c2ccc(Cl)cc2)c2ccc(OC)cc12` [RE 8, iodide of the ester of 2-N,N,N-dimethyl-decyl --amino-ethanol with 1-(p-chlorobenzoyl)-2-methyl-5-methoxy-3-indolyl-acetic acid]: the MIC with Salmonella cholerae suis turned out to be 20 mg/L; with Bacillus cereus mycoides it was 10 mg/L.
